Source: article PMC12136788
The list shows a part of the results.

T1: UNK ZnF1-3 (human, UniProt Q9C0B0 31-174)
T1 sequence: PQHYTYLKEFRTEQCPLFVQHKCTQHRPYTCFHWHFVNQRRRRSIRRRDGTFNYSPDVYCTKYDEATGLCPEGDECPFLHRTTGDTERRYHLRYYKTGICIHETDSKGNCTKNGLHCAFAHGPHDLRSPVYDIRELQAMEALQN

B1: 20884589_20885242_1168_3pUTR_ENSMUSG00000010205_ENSMUST00000115487|mouse|control|control (ssRNA)
RNA: GGGAGUUCUACAGUCCGACGAUCGGUGAGUCGCCCAGGAUCCCAGGCUUCUUCUGACCCUGGCUCUGGUUCUGGCUCUGGCUCUGCAGGGCUAGCUGCAGCAGUGCAGUGGACAGGGCAGGCCCGCUGAGCAGUGGCAUAGCACAACAGAGGAUUGAGCAUCA
B2: chr5:125368827:125368828:+_ENSMUSG00000079215_ENSMUST00000111417|mus_hu|motif|central (ssRNA)
RNA: GGGAGUUCUACAGUCCGACGAUCUAGCUUCAAAAGGGUUAGUCAUAUUCCCCAGCAACAGCAUGAUAAAAUAAUUCAACGGUGUAGAAAUAUAGAACUCUAGGACUAGCUGGAAACUCGGAAAUCAUUUAGCCUAAUGUUCUCCAACAGAGGAUUGAGCAUCA
B3: chr6:31620082:31620083:-_ENSG00000204463_ENST00000375976|hu_mus|FALSE|FALSE (ssRNA)
RNA: GGGAGUUCUACAGUCCGACGAUCGACCGCCCCCGCCUUCCGCCUCCGCCUCUCCUCGGUAUUCCAGCAACACGACUUAACCAACACGCGACCAAACACAUACAAACACACAUACACAGCCCACCACCCUGUGGCUCCGCCCCCCAACAGAGGAUUGAGCAUCA
B4: chr5:76988818:76988819:+_ENSMUSG00000036435_ENSMUST00000113493|mus_mus|FALSE|FALSE (ssRNA)
RNA: GGGAGUUCUACAGUCCGACGAUCUCCAUCCAGGUCUUCUGCUUCAGUCAUUGAUGCAGACAUGUUUUGAUGCUGCUGUAGUUUGAAAAAUUUACUUAUGAAGUCCUGUUCUGCCAGACACAGUGGCUCCAGUUCACUCAGCACCAACAGAGGAUUGAGCAUCA
B5: chr7:44609470:44609471:-_ENSG00000136271_ENST00000433257|hu_hu|motif|central (ssRNA)
RNA: GGGAGUUCUACAGUCCGACGAUCAGCUCCUCAAUCUUGCCUAAGUGGAACUGCUCCGUGGGAAGCACAAAGGUUAAGACGGUGCCUGGGUUGUUAGCGCGUGCUGUCCUGCCAGCUCGAUGGAUGUAGGCCUCAGGGGUUGGGCAACAGAGGAUUGAGCAUCA
B6: chr4:126583341:126583342:-_ENSMUSG00000042446_ENSMUST00000135003|mus_hu|FALSE|FALSE (ssRNA)
RNA: GGGAGUUCUACAGUCCGACGAUCUCCUCCGGCUGACACUGUGGAACCUGUGGGGAUGCUUACAAUUACUUGGCCCUGAGACAAGGGCACUACUGAAGAAUUCAUUCCAGUUGGUUUGUUGAAUAAAUUCUGGAAAGCUACCACCAACAGAGGAUUGAGCAUCA
B7: chr2:232320318:232320319:-_ENSG00000115053_ENST00000322723|hu_hu|hu_hu_hu_mus_True|38_38 (ssRNA)
RNA: GGGAGUUCUACAGUCCGACGAUCACUAUUAAAGUCUACAAAACCAAACCCUUUGGAAGAACCAGUUUCCCGAUCAGUGACUAUUCUUGCACGAACAGAGCCGUCAAAUGAUUCUUUUAAGGUCUCUUCAGUGGUAUCCUCAGACAACAGAGGAUUGAGCAUCA
B8: chr5:133537698:133537699:-_ENSG00000113575_ENST00000481195|hu_hu|motif|central (ssRNA)
RNA: GGGAGUUCUACAGUCCGACGAUCGCUCUCAUGAUUCCCUCGAAGAAUGGUGAUGCGUUCACGGUAACGAACCUUAAGAGCGGCAAGCAGUGUAACUGUUUCAACUGAAUAAUAUCCUCUGUCAACAUAAUCUCCCAUAAACAACAACAGAGGAUUGAGCAUCA
B9: 31314769_31314965_1062_CDS_ENSMUSG00000036882_ENSMUST00000044338|mouse|control|control (ssRNA)
RNA: GGGAGUUCUACAGUCCGACGAUCCCUGUAGAUUCCAUCCACCACACCAUGGGCCUCAAUAAACUCAGAGCAGCAGCGCAGCACUUGGGGCACGUCUUGGCCUGAGUUGCUGAGGUGCUCUCCAAGAUCACAACCAAACACCCUCAACAGAGGAUUGAGCAUCA
B10: chr13:21488354:21488355:-_ENSMUSG00000021327_ENSMUST00000070785|mus_hu|FALSE|FALSE (ssRNA)
RNA: GGGAGUUCUACAGUCCGACGAUCUUCCUCCACCUUUAUGACCAGAAGCUCCAUCUGGUCUUCUGUAGACUGGGCAUCCAGGGCUGUGCUUUCACUUAAUUCUCUAGCCAUCCUAGGCCAAGGCAGUACUCAGGCCUCACUCUACAACAGAGGAUUGAGCAUCA
B11: chr2:66073698:66073699:-_ENSMUSG00000034848_ENSMUST00000102718|mus_mus|motif|central (ssRNA)
RNA: GGGAGUUCUACAGUCCGACGAUCCUGCUGGAAUUCACUGAAGAACUCCAACUGCUGGUCUGCAUCUUGCAACUGCCCCUCGGUUAACUGACAUCGGAUAAGUCCGGUGACAGCAGAGAUGUUGCUCUCAUUCAGCGUCAUGGCCAACAGAGGAUUGAGCAUCA
B12: chr13:100204638:100204639:-_ENSMUSG00000052727_ENSMUST00000064762|mus_hu|FALSE|FALSE (ssRNA)
RNA: GGGAGUUCUACAGUCCGACGAUCAGGAGUGGGCACCUGGCCAGUGAGAUCCUUUUGGGUGGCCAGUGGCUGCUUCAGAAAGUCUAGAUGUUUGAGCUUUUCCAACCCUUCCAGGAUGUUGUACUGGGUGCUGUUCCCAGGAAACAACAGAGGAUUGAGCAUCA
B13: chr5:146798188:146798189:-_ENSG00000113657_ENST00000343218|hu_hu|FALSE|FALSE (ssRNA)
RNA: GGGAGUUCUACAGUCCGACGAUCCUUCCCAUUGGCUUCAAUGGUCUUCACUCCUCCAGGAACAAUCAGAUUGUCUCCAAUUUGUUUUAUUAAGCCAUCUUCCAUGUAAAUAUCAGCAUAAAAGGACUGAUCAUCAUUGACGAUCAACAGAGGAUUGAGCAUCA
B14: chr1:247070963:247070964:-_ENSG00000153207_ENST00000391829|hu_hu|motif|central (ssRNA)
RNA: GGGAGUUCUACAGUCCGACGAUCCUGAUUUGUCCUGCUUAUGUAACUAAGAGUUGAAACAGCUGUUCCUGUUGGACUUACGGACUGGAAACACAGAUGGCGCCCUUGUCUCAUUACACUUUCUCUAAUGUGUGGUACUUCAGCCAACAGAGGAUUGAGCAUCA
B15: chr19:2271408:2271409:+_ENSG00000104904_ENST00000602676|hu_hu|FALSE|FALSE (ssRNA)
RNA: GGGAGUUCUACAGUCCGACGAUCGAUCUUCAGGGGUGGGUGAGGGGCAUCGGAGCACCACCGAGGCCCCGGACCCGGGUUACUACAGCAGUGGAGGGAGACCCUGGAACUCUCACUGCUGCUGCCGCCGCGGCUGUGCAGGCUCAACAGAGGAUUGAGCAUCA
B16: chr8:23117756:23117757:+_ENSG00000147457_ENST00000313219|hu_hu|motif|central (ssRNA)
RNA: GGGAGUUCUACAGUCCGACGAUCAGCUUCAAGUUCAGCAUCUGAGAUCCUAGGGUUAGGCACGCUGUUGGUAAAAUGCCGGUUGCGGGGGUUGUCAGGCAGAUCCAAAGGUUCUUUGGUGGUAUCCUGAAGGAGGAUGUCCAACAACAGAGGAUUGAGCAUCA
B17: chr1:36758251:36758252:+_ENSG00000054118_ENST00000354618|hu_mus|FALSE|FALSE (ssRNA)
RNA: GGGAGUUCUACAGUCCGACGAUCGUGUAUCUCUGGGCUUUUCUUAUUUUUAGCUGCUUCUUGUUCAUUUCCUCUCUUUAGGUAUUUAGUAAAGCGUUCAUGCAAUGUCAUUCCAGAGGAUCCAAAGUGAUGCUCUUUAACAUGCAACAGAGGAUUGAGCAUCA
B18: chr1:158563958:158563959:+_ENSMUSG00000026596_ENSMUST00000166172|mus_mus|motif|central (ssRNA)
RNA: GGGAGUUCUACAGUCCGACGAUCUGUCCAUUUAAUAGGAAAUUUGGCUCCAGCAUGAGCAGUGUAGGUAUCUCCAGUCAUCAGUCGGCUUAAACCAAAGUCGGCCACUUUCACCACAUGGUUCUCGCCCACUAGGCAGUUCCGCAACAGAGGAUUGAGCAUCA
B19: 24909548_24909668_1702_CDS_ENSG00000107863_ENST00000396432|human|control|control (ssRNA)
RNA: GGGAGUUCUACAGUCCGACGAUCAUAAUCUGUCGUGCUUUGAGAUGCUGCUCUUAAACUAUCUAAUCUUUCUUGUAUUGUCCGACAACCUAUGUGCAAUCGUCUGUUAUCAAUAUACUCUUUGUAAGUUUUAUAGUUUUUCCACAACAGAGGAUUGAGCAUCA
B20: chr10:92717539:92717540:-_ENSMUSG00000008398_ENSMUST00000008542|mus_hu|FALSE|FALSE (ssRNA)
RNA: GGGAGUUCUACAGUCCGACGAUCCUGGAACAGCGUGCUUGGCCCUUGCAGCCUGGCAGGACUCAGCGGAGCAACUGGACUAAGGCUGCUCCAGAAAUGUAUGCUGGAGAGCAGUGGACUCGGAGUCAGAAGCAAUCCAUUUGGCAACAGAGGAUUGAGCAUCA
B21: chr4:83276511:83276512:-_ENSG00000138668_ENST00000353341|hu_hu|FALSE|FALSE (ssRNA)
RNA: GGGAGUUCUACAGUCCGACGAUCCUUCACCACCUGUUGGGGAUAAGUUGCAAAUGGAAUAAUUUAGUAUGGUUUGUAGCUAUUUUGAUGACCACCUCGCCUGGAUACCUUCCCAUAACCACUCUGCUGGUCACCACCUCUUCCCAACAGAGGAUUGAGCAUCA
B22: 76045722_76045842_1366_CDS_ENSG00000078687_ENST00000588847|human|control|control (ssRNA)
RNA: GGGAGUUCUACAGUCCGACGAUCAACUGAUGAUCCAUUAGCACCAGGAAGGCCUUGCAGGUGGGGCGGGAUGAUGGCCCCCAUACCAACAGCCAUGCCCCAGUUUGGCAGUCCAUUUGUCUGCAUUGCAUUGAUAGGGUUGGGCAACAGAGGAUUGAGCAUCA

biological target: T1, UNK ZnF1-3; test: nsRBNS (natural sequence RNA bind-n-seq); RBNS binding buffer (assumed for nsRBNS): 25 mM Tris pH 7.5, 150 mM KCl, 3 mM MgCl2, 0.01% Triton X-100, 500 ug/ml BSA, 20 U/ml SUPERase-In, 4 C; UNK is unkempt and MSI1 is Musashi-1; names of the RNAs are library labels; protein concentration not given here; high values mean tight binding

Row | Binder | binding signal [enrichment R]
1 | B1 | 0.935
2 | B2 | 1.46
3 | B3 | 1.8
4 | B4 | 1.08
5 | B5 | 1.69
6 | B6 | 0.988
7 | B7 | 0.664
8 | B8 | 1.28
9 | B9 | 0.879
10 | B10 | 1.13
11 | B11 | 0.892
12 | B12 | 1.16
13 | B13 | 1.23
14 | B14 | 0.811
15 | B15 | 0.893
16 | B16 | 1.12
17 | B17 | 0.539
18 | B18 | 0.889
19 | B19 | 0.638
20 | B20 | 0.773
21 | B21 | 0.992
22 | B22 | 1.16
